Results on two molecules are retold here after patent US20240270859A1 (HK INNO N, published 2024).

Read-outs that look alike come from different tables or passages of the source.

Holding throughout (test): cell-based or functional assay
Test [1] concerns the target T1, human TNFα (TNF-H5228 of Acro Biosystems) (human, UniProt P01375 fragment).
Test [2] addresses T2, human OX40L protein (OX40L-his), Acro Biosystems Cat #OXL-H52Q8 (human, UniProt P23510 51-183).
T2 sequence: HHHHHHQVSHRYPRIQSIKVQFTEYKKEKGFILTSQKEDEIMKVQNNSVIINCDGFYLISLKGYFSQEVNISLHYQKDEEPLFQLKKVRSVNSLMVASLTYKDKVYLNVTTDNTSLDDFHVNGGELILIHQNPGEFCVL

The target in test [3] is T1, human TNFα (TNF-H5228 of Acro …). The source holds these as a separate data set.

T1 sequence (P01375 77-233 limits assumed): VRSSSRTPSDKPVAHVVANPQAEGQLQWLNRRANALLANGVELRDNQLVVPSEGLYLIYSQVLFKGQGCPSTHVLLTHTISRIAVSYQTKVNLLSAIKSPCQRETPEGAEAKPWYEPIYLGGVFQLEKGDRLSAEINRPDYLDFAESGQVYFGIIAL

B1: bispecific antibody 02C09-TNFαi LC (bispecific antibody)
heavy: QMQLVQSGGGLVKPGGSLRVSCAASGFTFNYAWMSWVRQAPGKGLEWVGRIKGEPDGGTTEYADSVKGRFTISRDNSKNTLYLQMNSLRAEDTAVYYCVSRRGLDVWGQGTTVTVSSASTKGPSVFPLAPCSRSTSESTAALGCLVKDYFPEPVTVSWNSGALTSGVHTFPAVLQSSGLYSLSSVVTVPSSSLGTKTYTCNVDHKPSNTKVDKRV[human IgG4 Fc with S228P (EU numbers) not spelt out]
light: not shown
As for B1, the “IC50 (nM), TNFα blockade assay (luminescence of NFκB-RE HEK293 cells)” value in test [1] amounted to 0.058 nM.

B2: bispecific antibody I3F07-TNFαi LC (bispecific antibody)
heavy: QIQLAQSGAELVKPGASVKLSCKASGFTFPDYWMHWVKQRPGQGLEWIGEIDPPNGRTNYNEKFKSKATLTVDSSSNTAYMQLSRLTSEDSAVYYCARGIYYVDYWGQGTTLTVSSASTKGPSVFPLAPCSRSTSESTAALGCLVKDYFPEPVTVSWNSGALTSGVHTFPAVLQSSGLYSLSSVVTVPSSSLGTKTYTCNVDHKPSNTKVDKRV[human IgG4 Fc with S228P (EU numbers) not spelt out]
light: not shown
As for B2, the “IC50 (nM), OX40L blockade assay (luminescence of NFκB-luc2/OX40 Jurkat cells)” value in test [2] amounted to 0.94 nM. The “IC50 (nM), TNFα blockade assay (luminescence of NFκB-RE HEK293 cells)” value in test [3] was determined as 0.077 nM.
